Among all 310,000 compounds or so, about 2,200 (0.71%) showed an effect of 50% or more. The effect is printed as a negative number. The list shows a part of the results.
What follows are compounds tested against human ether-à-go-go-related gene (hERG) potassium channel (human, UniProt Q12809) (assay: primary screen, population patch clamp on CHO cells stably expressing hERG).
Chain of human ether-à-go-go-related gene (hERG) potassium channel (Q12809 whole entry, looked up): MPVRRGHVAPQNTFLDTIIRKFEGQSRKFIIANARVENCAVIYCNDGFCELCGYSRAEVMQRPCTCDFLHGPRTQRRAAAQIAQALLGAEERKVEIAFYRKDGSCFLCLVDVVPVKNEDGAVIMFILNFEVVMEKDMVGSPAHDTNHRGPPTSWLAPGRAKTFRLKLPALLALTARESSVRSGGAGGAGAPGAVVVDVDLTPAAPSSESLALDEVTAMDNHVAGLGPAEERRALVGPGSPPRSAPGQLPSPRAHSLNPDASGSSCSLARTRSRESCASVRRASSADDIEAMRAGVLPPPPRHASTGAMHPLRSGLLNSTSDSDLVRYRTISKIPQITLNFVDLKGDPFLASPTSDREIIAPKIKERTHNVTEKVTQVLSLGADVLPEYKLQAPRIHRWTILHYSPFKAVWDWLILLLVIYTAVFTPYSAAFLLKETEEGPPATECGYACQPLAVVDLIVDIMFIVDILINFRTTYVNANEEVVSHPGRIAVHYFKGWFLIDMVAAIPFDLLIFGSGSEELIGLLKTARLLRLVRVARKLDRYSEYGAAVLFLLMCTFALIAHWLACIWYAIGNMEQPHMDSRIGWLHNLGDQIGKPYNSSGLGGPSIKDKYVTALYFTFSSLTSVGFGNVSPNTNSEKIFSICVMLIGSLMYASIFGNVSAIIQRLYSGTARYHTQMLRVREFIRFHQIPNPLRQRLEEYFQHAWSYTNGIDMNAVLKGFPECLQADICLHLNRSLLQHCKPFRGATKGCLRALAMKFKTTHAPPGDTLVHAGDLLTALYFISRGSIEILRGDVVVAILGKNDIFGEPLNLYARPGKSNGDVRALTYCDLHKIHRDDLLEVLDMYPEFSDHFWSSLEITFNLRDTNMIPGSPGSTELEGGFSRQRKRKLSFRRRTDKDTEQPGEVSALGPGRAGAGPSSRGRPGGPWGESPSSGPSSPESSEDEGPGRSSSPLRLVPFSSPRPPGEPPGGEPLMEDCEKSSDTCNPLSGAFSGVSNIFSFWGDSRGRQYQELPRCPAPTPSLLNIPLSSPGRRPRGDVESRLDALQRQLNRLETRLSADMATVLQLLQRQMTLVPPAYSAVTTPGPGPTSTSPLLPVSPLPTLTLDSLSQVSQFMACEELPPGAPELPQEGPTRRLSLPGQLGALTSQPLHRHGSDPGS

Point of comparison: `Cc1cc(=O)oc2cc(OCC(=O)N3CCN(Cc4ccc5c(c4)OCO5)CC3)ccc12`, “hERG current change (%, negative = inhibition) at 1uM” value -0.606%. Against it:
- Cc1ccccc1OCc1nnc(SCCN2CCCC2)n1-c1ccccc1.Cl — lower, -36.5%
- CCC(C)(C)n1nnnc1C(c1ccccc1OC)N1CCN(C(=O)c2ccco2)CC1 (stereo not drawn) — lower, -2.71%
- CC(=O)OC12CC3CC(C1)C(=NO)C(C3)C2 — higher, 3.76%
- COc1ccc(NS(=O)(=O)c2cc3c(cc2C)N(C(C)=O)CCO3)cc1 — higher, 8.37%
- COc1ccc(-c2nn3c(-c4ccc(F)cc4)nnc3s2)cc1 — higher, 10.1%
- CCN(CC)S(=O)(=O)c1cc(NC(=O)Cn2cnc3ccccc3c2=O)ccc1C — lower, -20.7%
- CCNc1nc(NCC)nc(N(C)N)n1 — higher, 5.95%
- COc1ccc(NC(=O)c2ccc3c(SCC(=O)O)c4c(nc3c2)CCCC4)cc1Cl — higher, 12.4%
- Cc1c(C(=O)Nc2cc(S(=O)(=O)N3CCOCC3)ccc2N2CCOCC2)oc2ccccc12 — higher, 6%
- CCCc1nnc(NC(=O)c2cn(CC)c3cc(N4CCN(C)CC4)c(F)cc3c2=O)s1 — higher, 17%
- NC(=O)CC(NC(=O)c1ccccc1)c1ccc(N2CCN(c3ccccc3)CC2)c([N+](=O)[O-])c1 (stereo not drawn) — higher, 3.06%
- COc1ccc(-n2nc3c(N)n[nH]c3cc2=O)cc1 — higher, -0.0408%
- O=C(Nc1nc2ccccc2[nH]1)C1CCC1 — higher, 1.2%
- O=C(NCc1ccccc1)c1ccc(CNc2c(N3CCCC3)c(=O)c2=O)cc1 — higher, 14.7%
- CC(=O)Nc1ccc(S(=O)(=O)Nc2nc3ccccc3s2)cc1 — higher, 3.91%
- O=C1[C@@H]2C(Cc3ccc(O)cc3)NC3(C(=O)Nc4ccc(F)cc43)[C@@H]2C(=O)N1c1ccccc1 (stereo partly drawn) — higher, 6.75%
- COc1cccc(CN(C)C(=O)CC2C(=O)NCCN2C2Cc3ccccc3C2)c1 (stereo not drawn) — higher, 9.5%
- O=C(Cn1nc(C(F)(F)F)c2c1CCCCC2)N1CCOCC1 — higher, 6.74%
- COc1ccc(-c2nc(SCC(=O)Nc3cc(C)on3)n[nH]2)cc1 — higher, 12.1%
- Cn1c(/C(C#N)=C(\O)c2ccccc2Cl)nc2ccccc21 — higher, 15.2%
- Cn1c(O)c(N=NC(=O)CNC(=O)c2ccccc2)c2cc(Br)ccc21 — higher, 11.7%
- CC(=O)c1cccc(NC(=O)C(OC(=O)c2cccc(S(=O)(=O)N(C)c3ccccc3)c2)c2ccccc2)c1 (stereo not drawn) — higher, 13.1%
- CCCNCC1COc2ccccc2O1.Cl (stereo not drawn) — higher, 18.4%
- CN(Cc1nc2ccccc2c(=O)[nH]1)C(=O)c1ccccc1OCc1ccc(Cl)cc1 — lower, -4.36%
- CCN1C(=O)/C(=C\N(C)C)c2ccccc21 — higher, 16.6%
- COc1ccc(NCc2ccc3c(c2)OCO3)cc1Cl — higher, 6.84%
- CCN(CC)c1ccc2cc(C(N)=O)c(=O)oc2c1 — higher, 9.2%
- Cc1cc(C)c(C(=O)N2CCCC(N3CCN(c4ccc(F)cc4)CC3)C2)o1 (stereo not drawn) — lower, -44.4%
- O=S(=O)(Cc1c(F)cccc1Cl)c1ncn[nH]1 — higher, 15.8%
- C[C@@]12CCC3[C@@](CCC4[C@@]3(C)CCC[C@@]4(C)C(=O)NC3CCCCC3)(CC1=O)C2 (stereo partly drawn) — higher, 9.88%
- COc1ccc(OCc2cc(C(=O)N3C[C@H]4CC[C@H]3C4)no2)c(Cl)c1 — higher, 10.3%
- COc1ccc(NC(=O)COC(=O)C2CC3C=CC2C3)cc1 (stereo not drawn) — higher, 10.5%
- COc1ccc(OC)c(CN2CCN(c3ccccc3OC)CC2)c1 — lower, -2.57%
- CC1(C)N=C(c2ccccc2)C(=O)N1 — lower, -12.4%
- CCOC(=O)Cn1cnc2c(nnn2-c2ccc(OC)cc2)c1=O — higher, 4.99%
- COc1cc(OC)cc(C(=O)Nc2ccccc2C(=O)NCc2cccnc2)c1 — higher, 9.6%
- CCOc1ccc(OCCCCN(C)C)cc1 — higher, 12.1%
- c1ccc(C2C/C(=N\N3CCOCC3)c3ccccc3O2)cc1 (stereo not drawn) — higher, 9.4%
- COc1ccc(CC(=O)NNC(=S)NC(=O)c2cccnc2)cc1 — higher, 12.4%
- CCOC(=O)Cn1c(=O)oc2cc(S(=O)(=O)N(C)c3ccc(OC)cc3)ccc21 — lower, -1.67%
- CCOC(=O)c1ccccc1NC(=S)N1CCC(C(N)=O)CC1 — higher, 15.9%
- C/C(=N\NC(=S)NCc1ccccc1)c1ccc(C(C)(C)C)cc1 — higher, 13.8%
- COc1ccc2c(Cl)c(C(=O)NN)sc2c1 — higher, 12.5%
- CN(C)c1cc(-c2cccc(C(F)(F)F)c2)oc(=O)c1Cl — higher, 21.6%
- COc1ccc(NC(=S)NCCN2CCOCC2)c(OC)c1 — higher, 3.05%
- Cc1cccc2sc(NC(=O)c3cccc(S(=O)(=O)N4CCc5ccccc54)c3)nc12 — higher, 11.4%
- COc1ccc(OC)c(NC(=S)NCC(c2cccnc2)N2CCOCC2)c1 (stereo not drawn) — higher, 10.3%
- O=C(CNC(=O)c1cccc(F)c1)N/N=C/C=C/c1ccccc1 — higher, 7.22%
- c1ccc(-n2cc(CNCCc3cscn3)c(-c3ccc4c(c3)OCO4)n2)cc1 — lower, -3.84%
- COc1ccc(-c2noc(CCCC(=O)NC3CCCC3)n2)cc1OC — higher, 13.8%
- CCn1c(SC)nc2cc(S(=O)(=O)N3CCCCC3)ccc21 — lower, -6.34%
- COc1ccc(NC(=O)c2ccccc2)cc1 — higher, 13%
- O=C(c1ccccc1)C1CCN(C(=O)C2CCC(=O)N(Cc3ccccc3F)C2)CC1 (stereo not drawn) — lower, -8.89%
- O=C(CSc1ncnc2nc[nH]c12)NCCc1ccccc1 — higher, 5.38%
- CCOC(=O)N1CCC(NS(=O)(=O)c2cc(Br)cnc2N)CC1 — lower, -1.22%
- COc1ccc(CNC(=O)[C@@H](C)NC(=O)[C@@H]2Cc3ccccc3CN2)cc1 — higher, -0.521%
- CCOC(=O)C1(Cc2cccc(Cl)c2)CCCN(C(=O)CCSC)C1 (stereo not drawn) — higher, 7.77%
- CC(NC(=O)c1nn(C)c(=O)c2ccccc12)c1ccc(F)cc1 (stereo not drawn) — higher, 11.8%
- Cc1ccccc1CNC(=O)c1ccccc1 — higher, 13.4%
- CC(=O)N1CCCN(Cc2cn(-c3ccc(C)cc3)nc2-c2cccc(C)c2)CC1 — higher, 4.46%
- COc1ccc(N2CC(C(=O)Nc3cc(C)ccn3)CC2=O)cc1 (stereo not drawn) — higher, 10.9%
- CCc1ccc(CN2CCN(Cc3cc(Br)ccc3O)CC2)cc1 — higher, 15.3%
- CCC(=O)NC(Cc1ccccc1)c1nc2ccccc2[nH]1 (stereo not drawn) — higher, 12%
- Cc1ccc(CNS(=O)(=O)N(C)C)cc1 — higher, 16%
- O=S1(=O)CC(O)C(N(CCO)C(=S)Nc2ccccc2)C1 (stereo not drawn) — higher, 12.3%
- C/C=C(\C)CN1CCN(c2cc(C)ccc2C)CC1 — higher, 7.21%
- Oc1cccc(CCC2CCCCN2Cc2cn[nH]c2-c2ccc3c(c2)OCO3)c1 (stereo not drawn) — lower, -46.1%
- COc1ccc(OC)c(NC(=O)CC2SC(=NCc3ccccc3)NC2=O)c1 (stereo not drawn) — higher, 1.29%
- Cc1cc(NC(=O)C2C3C(=O)N(CC4CCCO4)C(C(=O)NCc4ccccc4)C34C=CC2(C)O4)no1 (stereo not drawn) — higher, 12.8%
- Cc1ccc(C(=O)NCCCNC(=O)COc2ccc(Cl)c(C)c2)cn1 — lower, -11.2%
- O=C(c1ccc(F)cc1)C1CCN(C(=S)NCC2CCCO2)CC1 (stereo not drawn) — higher, 7.51%
- O=C(NC(=S)NC1CCS(=O)(=O)C1)c1ccccc1F (stereo not drawn) — higher, 15.2%
- Cc1cc(C)cc(NC(=O)Cc2ccc(-n3cccc3)cc2)c1 — higher, 20.4%
- CC(=O)Nc1ccc(C2NC(=O)CCC2[N+](=O)[O-])cc1 (stereo not drawn) — higher, 7.01%
- Cc1cc(C(=O)CN2C(=O)NC(C)(c3ccccc3)C2=O)c(C)n1CC1CCCO1 (stereo not drawn) — lower, -1.43%
- COc1ccccc1C(=O)NCCC(=O)Nc1ncccc1O — higher, 16.8%
- O=C(CCc1ccccc1)N1CCCC1 — higher, 11.3%
- O=C(O)c1ccc(-c2ccc(OS(=O)(=O)c3ccccc3F)cc2)cc1 — higher, 9.21%
- CCc1ccccc1NC(=S)NCc1ccc2c(c1)OCO2 — lower, -14%
- CCN1C(=O)C(CC(=O)Nc2ccc(F)cc2)N(Cc2ccc3c(c2)OCO3)C1=S (stereo not drawn) — higher, 7.24%
- O=C(CCS(=O)(=O)c1cccs1)Nc1ccc(C(=O)NCc2cccs2)cc1 — higher, 12.1%
- CC(=O)OCCN1C(=O)c2cccnc2C1=O — higher, 4.85%
- Cc1ccccc1S(=O)(=O)Nc1nc2ccccc2nc1N1CCOCC1 — higher, 8.94%
- COc1ccccc1NC(=S)NC(=O)Cc1ccccc1 — higher, 16.7%
- N#CC1=C(N)SC(N)=C(C#N)C1c1cccc(O)c1 — higher, 11.4%
- COc1ccc(Cl)cc1NC(=O)CN1CCC(n2nnc3cc(C)ccc32)CC1 — higher, 5.49%
- C/C=C/C(=O)OCC(=O)Nc1ccc(SC(F)F)cc1 — higher, 1.22%
- O=C(CN1CCOCC1)Nc1scc2c1c(=O)oc1ccccc12 — higher, 15.2%
- O=C(O)[C@@H]1CCCN1C(=O)c1ccccc1N1C(=O)[C@@H]2Cc3c([nH]c4ccccc34)C(c3cccc(Cl)c3)N2C1=O (stereo partly drawn) — higher, 6.63%
